Some of the results follow. The main result of the screen is listed elsewhere. These columns were measured beside it and carry no call. Compounds called inactive in the main read-out are mostly missing here.

The test in a line: beta-lactam sensitization of Mtb H37Rv, H37Rv (AID 434955).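 Note: growth measured after seven days incubation then overnight dye step; 0% = bacteria only wells and 100% = bacteria with antibiotic.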 The settings on record: M. tuberculosis H37Rv growth with meropenem, percent inhibition; measured here: primary screen without meropenem; at 25 µM.
Take `CC(=O)Nc1scc(C)c1-c1nc2ccccc2s1`: the inhibition was found to be 26%.
Take `COc1cc2nc(N3CCN(C(=O)OCc4ccccc4)[C@H](C(=O)NC(C)(C)C)C3)nc(N)c2cc1OC`: the inhibition was found to be 56.7%.
Consider `O=C(CN1CCN(c2cccc(Cl)c2)CC1)Nc1ccc(S(=O)(=O)N2CCOCC2)cc1`, for which the inhibition is 8.13%.
As for `COc1ccc(NC(=O)CCl)cn1`, the inhibition is 55.6%.
Turning to `CC(C)c1ccc(NC(=O)c2ccc3c(c2)C(=O)N(Cc2cccnc2)C3=O)cc1`, the inhibition was -10.1%.
To `O=C(NCCN1CCN(C(=O)c2ccc([N+](=O)[O-])cc2)CC1)C(=O)Nc1ccc(F)cc1` belongs -0.11%.
To `FC(F)(F)c1ccc2c(c1)ncn2C1CCN(Cc2nnnn2C2CCCCC2)CC1` belongs 59.8%.
To `O=S(=O)(NC(=NC1CCCCC1)c1ccccc1)c1ccc(F)cc1` belongs 5.49%; to `Nc1ccnn1Cc1cccs1`, 2.53%; to `CC(OC(=O)c1oc2ccccc2c1CSC1CCCCC1)C(=O)NC(N)=O` (stereo not drawn), -14.8%.
On to `CCN(C1CCCCC1)S(=O)(=O)c1ccc(C(=O)O)cc1`, for which the inhibition was -3.71%.
As to `Cc1c(C(=O)NC2CCC(C)CC2)oc2ccccc12` (stereo not drawn), the inhibition stood at 4.74%.
For the molecule `Cn1c(=O)c2ccccc2n2c(CCl)nnc12`, the inhibition is 26.5%.
As for `CCOc1ccc(S(=O)(=O)NCCC(=O)NCC2(N3CCCCC3)CCCCC2)cc1`, the inhibition was -6.67%.
As for `O=C(CC1C(=O)NCCN1Cc1ccccc1C(F)(F)F)NC1CCC1` (stereo not drawn), the inhibition was 4.41%.
In the case of `Cn1c(O)c(C2=c3ccccc3=NC2=O)[nH]c1=S`, the inhibition is 37%.
As to `Cc1nn(CCc2nn[nH]n2)c2nc(-c3ccc(C4CCCCC4)cc3)cc(C(F)(F)F)c12`, the inhibition is 21.8%.
To `O=C1Nc2ccccc2Nc2ccc([N+](=O)[O-])cc21` belongs 2.63%; to `O=S1(=O)CCO[C@H]2Cc3ccccc3[C@H]2N1Cc1ccc(Cl)cc1`, 24.6%; to `C=CCn1c(SCC(=O)NCC2CCCO2)nc2scc(-c3ccc(OC)cc3)c2c1=O` (stereo not drawn), -1.7%.
Consider `COc1ccc(CNC(=O)c2csnn2)cc1`, for which the inhibition was -4.73%.
To `C=CCNC(=O)/C(C#N)=C/c1c(N(Cc2ccccc2)Cc2ccccc2)nc2ccccn2c1=O` belongs -5.11%; to `Cc1ccc(C)c(CN2CCC(n3nccc3NC(=O)C3CCCC3)CC2)c1`, 6%.
The same measure for `COc1ccc(-c2csc(Nc3ccc(C)cn3)n2)cc1OC`: 35%; for `O=C(COc1ccc(C(=S)N2CCCC2)cc1)Nc1ccccc1C(F)(F)F`: -1.76%; for `O=C(C1=C[C@@H](c2ccc(Br)cc2)C[C@@H](OCCCCO)O1)N1CCN(Cc2ccc3c(c2)OCO3)CC1`: 56.9%.
To `Cc1cc(-c2nsc(=O)o2)c(S(C)(=O)=O)s1` belongs -11.3%; to `O=C(NC(=S)NCc1ccco1)c1cccc(Cl)c1`, 9.28%; to `CCc1ccc(-c2cc(C(F)(F)F)n3nc(C(=O)Nc4c(C)nn(Cc5ccccc5Cl)c4C)cc3n2)s1`, 2.17%.
On to `CCN(CC)C(=O)Oc1ccc2c(c1)O/C(=C\c1ccco1)C2=O`, for which the inhibition worked out at 8.49%.
To `CN(C)S(=O)(=O)c1ccc(C(=O)NCc2nnc(SCC(=O)N3CCCCCC3)o2)cc1` belongs -3.87%.
As for `CCCOc1ccc(N2CC(C(=O)Nc3ccccc3OC)CC2=O)cc1` (stereo not drawn), the inhibition was determined as 9.09%.
To `CCCc1nc2oc3c(OCC)ncnc3c2c2c1COC(C)(C)C2` belongs 12.9%; to `Cc1cc(OCc2cc(C(=O)N3CCC(Oc4cccnc4)CC3)no2)cc(C)c1Cl`, 98.6%.
The same measure for `O=C(CN1CCN(c2ccccn2)CC1)N1c2ccccc2Sc2ccc(C(F)(F)F)cc21`: 6.43%; for `COC(=O)c1ccc(/C=N/Nc2nc(-c3ccc(C)cc3)cs2)cc1`: 49.9%.
For `CCNC(=S)NNC(=O)c1ccoc1C`, the inhibition came out at 2.51%.
The same measure for `CCCOc1ccc(C2C(C(=O)c3ccc(C)o3)=C(O)C(=O)N2Cc2ccco2)cc1OCC` (stereo not drawn): -3.52%; for `COc1ccc(N2CCN(C(=O)C3CCN(C(=O)c4ccc([N+](=O)[O-])cc4)CC3)CC2)cc1`: -3.56%.
Regarding `CCCCN(C)CC(O)Cn1cc(/C=C/C(=O)c2ccc(C)cc2)c2ccccc21` (stereo not drawn), the inhibition was determined as 99.2%.
As to `COC(=O)COc1ccc(S(=O)(=O)NCCC2=CCCCC2)cc1C`, the inhibition was -6.83%.
For the molecule `CCCCCn1c(=O)[nH]c2cc(C(=O)NCCc3ccc(OC)c(OC)c3)ccc2c1=O`, the inhibition is 3.45%.
Turning to `COc1ccc(-c2ccc3c(N)c(C(=O)c4ccc(OC)c(OC)c4)sc3n2)cc1`, the inhibition was -4.33%.
To `Cc1ccc2nccc(C(=O)N3CCCC(N4CCN(c5ccc(F)cc5)CC4)C3)c2c1` (stereo not drawn) belongs 7.45%; to `CCCn1nc2cc(C(=O)NCCCCc3ccccc3)ccc2c1OCC`, 4.33%; to `Cc1cc(S(=O)(=O)N2CCCC(N(C)CCc3ccccn3)C2)c(C)s1` (stereo not drawn), 3.55%.
Consider `CCn1c(SCC(=O)c2[nH]c(C)c(C(C)=O)c2C)nnc1-c1cccs1`, for which the inhibition is 1.85%.
Consider `Cc1ccnc(NC(=O)c2cccc3ccccc23)c1`, for which the inhibition was -3.03%.
Consider `O=C(OCC(=O)N(Cc1ccccc1)C1CCS(=O)(=O)C1)c1cc2c(s1)CCCC2` (stereo not drawn), for which the inhibition is -7.73%.
The same measure for `CN(CCOc1ccccc1)C(=O)C1CCC(=O)N(CCCN2CCOCC2)C1` (stereo not drawn): 14.5%; for `CCN1C(=O)/C(=C\N2CCN(c3ccc(F)cc3)CC2)SC1=S`: 16%; for `COc1ccc(CNC(=O)CCc2nnc3ccc(N4CCC5(CC4)OCCO5)nn23)cc1`: -0.52%.
In the case of `COc1ccc(-c2csc(Nc3ncccc3C)n2)cc1OC`, the inhibition turned out to be 46.5%.
The same measure for `Cc1ccc(C#N)c(SCc2nnc(-c3ccc(Cl)cc3)o2)n1`: 2.98%.
Consider `COc1ccc(NC(=S)NNC(=O)c2ccccc2OC(F)F)cc1`, for which the inhibition is 2.8%.
As for `CCOC(=O)N1CCC(NC(=O)C(CC(C)C)NC(=O)C2CCC(C)CC2)CC1` (stereo not drawn), the inhibition was -3.24%.
The same measure for `CCCn1nnc(NC(=S)NC(=O)CC)n1`: 54.6%; for `COc1ccccc1Oc1ccc(S(=O)(=O)N2CCCCC2)cc1NC(=O)CCNC(C)=O`: 22.5%; for `Cc1cc(C)nc(SCC(=O)OCC(=O)N(C)c2c(N)n(Cc3ccccc3)c(=O)[nH]c2=O)n1`: 0.06%.
For `COc1ccc(CCNCc2csc3nc4ccccc4n23)cc1OC`, the inhibition is 32.1%.
With `CC/C(CC(C)(C)c1ccccc1)=N\O`, the inhibition was -8.25%.
The same measure for `CNC(=O)COC(=O)c1ccccc1NC(=O)c1ccco1`: 50.2%.
With `O=C(NCCC1=CCCCC1)NC1CCCCC1`, the inhibition turned out to be 7.21%.
Consider `CC(C)NC(=S)NN=C1c2ccccc2-c2ccccc21`, for which the inhibition is -0.95%.
The same measure for `CCn1cc(C(=O)N2CCOCC2)c(=O)c2cc(S(=O)(=O)N(C)C3CCCCC3)ccc21`: -3.63%; for `O=c1cc(-c2cc3ccccc3o2)c2cc(O)ccc2o1`: 2.31%; for `O=C(CSc1ccc2nnc(-c3ccccn3)n2n1)Nc1cccc(F)c1`: -13.6%.
To `COc1cccc(C(=O)NNC(=O)c2ccccc2Br)c1` belongs -1.37%.

For the origin of these results see PubChem BioAssay AID434955 (Southern Research Specialized Biocontainment Screening …, 2010).
